# This list was built around the results that the source calls inconclusive (neither active nor inactive); the mix of calls is not that of the screen. For some of these results: No potency is given beside an inconclusive call; the fits are too rough. The source made the active and inactive calls. The call rests on the fitted dose curve; in most records, active means well fitted curve in the direction sought with a large enough effect; inconclusive means small, poorly fitted or top-dose-only effect, or another doubt; inactive means no such curve, though single readings can be large; an effect the other way counts as inactive or inconclusive.
# Tests used:
# [1] = target: Rap guanine nucleotide exchange factor 3 (Homo sapiens) (UniProt O95398); experiment: Confirmatory qHTS for antagonist of cAMP-regulated guanine nucleotide exchange factor 3 (EPAC1) (AID 1645880); details: EPAC1 Rap1B-BODIPY-GDP exchange, fluorescence; activity, negative = inhibition: at 115 µM (top of the series); further: nearly all actives have a fitted effect of over 55% in size;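 on activity, negative = inhibition: plate controls were DMSO only for no effect and full effect of the ATA control for full effect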
# Summary of the method: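 Nucleotide exchange uses 100 nM EPAC1, 250 nM RAP1B-BODIPY-GDP and 50 uM GDP, with compounds in a concentration-titration series. After 5 min at room temperature, fluorescence (480 nm ex/540 nm em) is read every 5 min for 30 min. Data are normalized to control ATA and DMSO.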
# [2] = target: Rap guanine nucleotide exchange factor 4 (Homo sapiens) (UniProt Q8WZA2); experiment: Confirmatory qHTS for agonist of cAMP-regulated guanine nucleotide exchange factor 4 (EPAC2) (AID 1645884); details: EPAC2 GEF activity, Rap1B-BODIPY-GDP fluorescence; activation: at 154 µM (top of the series), percent relative to cAMP agonist control;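 further: nucleotide exchange releases bodipy-GDP from Rap1 and this lowers its fluorescence; nearly all actives have a fitted effect of over 65% in size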; on activation: on the % scale 0 is the no-effect control and ±100 the full control effect
# [3] = target: DNA polymerase eta (Homo sapiens) (UniProt Q9Y253); experiment: qHTS for Inhibitors of Polymerase Eta: Confirmatory Assay for Cherry-picked Compounds (AID 720502); details: Pol eta primer extension, TAMRA/BHQ fluorescence, 10 min
# Summary of the method: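 10 nM Pol eta + cpd, 15 min RT; start w/ 50 nM final primer/TAMRA-reporter/BHQ-2-template substrate; kinetic read 0 and 10 min, ex 525/em 598 nm. Buffer-only wells = negative control.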
# [4] = target: Rap guanine nucleotide exchange factor 3 (Homo sapiens) (UniProt O95398); experiment: Confirmatory qHTS for agonist of cAMP-regulated guanine nucleotide exchange factor 3 (EPAC1) (AID 1645881); details: EPAC1 Rap1B BODIPY-GDP exchange fluorescence; activation: at 154 µM (top of the series), 100% = cAMP control response; further: nearly all actives have a fitted effect of over 75% in size;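 on activation: EPAC1 catalysed release of BODIPY-GDP from Rap1B seen as fluorescence loss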
# [5] = target: Rap guanine nucleotide exchange factor 3 (Homo sapiens) (UniProt O95398); experiment: Counterscreen qHTS for agonist of cAMP-regulated guanine nucleotide exchange factor 3 (EPAC1) (AID 1645889); details: EPAC1 Rap1B-BODIPY-GDP exchange, fluorescence; activation: at 154 µM (top of the series) unless noted; further: nearly all actives have a fitted effect of over 40% in size; on activation: % of control where 0% means no effect
# Summary of the method: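 Rap1B-BODIPY-GDP 250 nM + GDP 50 uM; cpds 7-pt, final 9.74 nM–152 uM (activator mode) or from 7.32 nM upwards (inhibitor mode); RT; FI 480/540 nm at 5 and 30 min, then ± cAMP, reread.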
# [6] = target: DNA repair nuclease/redox regulator APEX1 (Homo sapiens) (UniProt P27695); experiment: Confirmation qHTS Assay for Inhibitors of the Human Apurinic/apyrimidinic Endonuclease 1 (APE1) (AID 2572); further: nearly all actives have a fitted effect of over 30% in size
# Summary of the method: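 Enzyme and test compound were incubated for 15 min at room temperature, after which a 50 nM (final) double-stranded abasic-site substrate bearing 5'-TAMRA and 3'-BHQ-2 was added. Incision was followed as fluorescence increase over three reads.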
# [7] = qHTS for Inhibitors of WRN Helicase: Thiazole Orange DNA Binding Counterscreen (AID 720499);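 further: drop in dye fluorescence marks compound binding to DNA; nearly all actives have a fitted effect of over 60% in size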
# Summary of the method: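 Thiazole orange displacement from unlabeled DNA (50 nM DNA, 100 nM dye) was monitored by fluorescence, ex 480/em 530 nm, following 15 min room-temperature incubation with pintool-dispensed compounds.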
# [8] = qHTS for Inhibitors of the vitamin D receptor (VDR): Hit Validation using a Texas Red Assay (AID 602201); on activity, negative = inhibition: on the % scale 0 is the no-effect control and ±100 the full control effect
# Summary of the method: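 After a 2-hour room-temperature incubation, polarization of Texas-Red emission was read (Ex 595 nm/Em 615 nm). Final mix contained 7 nM Texas Red, 1.5 uM VDR-LBD and LG19078.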
# [9] = target: Vitamin D3 receptor (Homo sapiens) (UniProt P11473); experiment: qHTS for Inhibitors of the vitamin D receptor (VDR): Hit Validation using a Beta-Lactamase Assay (AID 602202)
# Summary of the method: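 Beta-lactamase reporter read-out (447 nm emission of cleaved FRET substrate, 2 h) after 18 h compound exposure of HEK293 cells carrying a VDR-GAL4 fusion and UAS reporter, stimulated with LG190178.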
# [10] = qHTS for Inhibitors of the vitamin D receptor (VDR): Hit Validation using a Cytotoxicity Assay (AID 602204);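 further: cells co-treated with VDR agonist LG190178 at 300 nM; nearly all actives have a fitted effect of over 75% in size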
# Summary of the method: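 Using cycloheximide at high concentration as positive control and DMSO as negative, cells plated at 20,000 per well (4 h) are exposed to compounds for 18 h; ATP luminescence is read after 30 min.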
# [11] = target: Tumor susceptibility gene 101 protein (Homo sapiens) (UniProt Q99816); experiment: qHTS Assay for Iinhibitors of HIV-1 Budding by Blocking the Interaction of PTAP/TSG101: Hit Validation (AID 651600); further: nearly all actives have a fitted effect of over 70% in size
# Summary of the method: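 Measuring PTAP–Tsg101 interaction by FP: protein at 10 uM and fluorescent peptide at 50 nM (final), buffer 10 mM HEPES pH 7.5 with 0.15 M NaCl, 3 mM EDTA, 0.1 mM TCEP, 0.01% Tween 20; 20 min incubation, r.t.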
# [12] = target: DNA polymerase kappa (Homo sapiens) (UniProt Q9UBT6); experiment: qHTS for Inhibitors of Polymerase Kappa: Confirmatory Assay for Cherry-picked Compounds (AID 720501); details: purified Pol-kappa, fluorescent strand-displacement substrate
# Summary of the method: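 Strand-displacement fluorescence read-out: TAMRA reporter released from a BHQ-2-quenched template, measured at 525/598 nm over a 10 min kinetic window. Substrate was 50 nM final; enzyme was 10 nM Pol-kappa, preincubated 15 min at room temperature with compound.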
# Potency means the concentration at half of the fitted maximal effect; tags describe the fitted curve by direction and shape.
# Sequence of UniProt Q8WZA2 (Q8WZA2 whole entry, looked up): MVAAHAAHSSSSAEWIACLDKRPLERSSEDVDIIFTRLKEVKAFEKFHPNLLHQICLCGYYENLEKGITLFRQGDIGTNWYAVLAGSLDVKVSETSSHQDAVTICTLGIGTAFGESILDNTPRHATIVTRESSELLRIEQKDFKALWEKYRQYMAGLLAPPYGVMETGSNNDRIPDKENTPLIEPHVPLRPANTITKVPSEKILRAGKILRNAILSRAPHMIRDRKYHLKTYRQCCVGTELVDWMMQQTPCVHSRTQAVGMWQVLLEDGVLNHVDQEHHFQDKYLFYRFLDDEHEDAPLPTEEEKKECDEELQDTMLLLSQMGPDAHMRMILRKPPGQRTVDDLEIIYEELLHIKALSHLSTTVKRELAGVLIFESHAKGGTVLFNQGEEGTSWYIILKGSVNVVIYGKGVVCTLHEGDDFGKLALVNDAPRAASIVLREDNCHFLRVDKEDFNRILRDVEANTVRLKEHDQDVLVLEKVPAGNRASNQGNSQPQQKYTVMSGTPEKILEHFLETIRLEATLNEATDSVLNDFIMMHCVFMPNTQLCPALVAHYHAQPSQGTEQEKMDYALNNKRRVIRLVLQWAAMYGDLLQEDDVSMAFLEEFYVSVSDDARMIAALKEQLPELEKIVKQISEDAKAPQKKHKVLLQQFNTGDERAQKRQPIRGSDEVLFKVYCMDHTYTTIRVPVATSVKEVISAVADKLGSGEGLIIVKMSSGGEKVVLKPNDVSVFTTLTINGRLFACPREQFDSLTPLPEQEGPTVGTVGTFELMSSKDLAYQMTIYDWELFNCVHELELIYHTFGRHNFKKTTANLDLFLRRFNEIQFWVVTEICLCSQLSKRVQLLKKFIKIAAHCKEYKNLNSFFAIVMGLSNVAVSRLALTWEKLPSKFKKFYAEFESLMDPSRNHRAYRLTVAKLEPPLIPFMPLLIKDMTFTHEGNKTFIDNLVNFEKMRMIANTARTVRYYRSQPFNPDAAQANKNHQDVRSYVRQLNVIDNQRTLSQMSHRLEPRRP
# Sequence of UniProt O95398 (O95398 whole entry, looked up): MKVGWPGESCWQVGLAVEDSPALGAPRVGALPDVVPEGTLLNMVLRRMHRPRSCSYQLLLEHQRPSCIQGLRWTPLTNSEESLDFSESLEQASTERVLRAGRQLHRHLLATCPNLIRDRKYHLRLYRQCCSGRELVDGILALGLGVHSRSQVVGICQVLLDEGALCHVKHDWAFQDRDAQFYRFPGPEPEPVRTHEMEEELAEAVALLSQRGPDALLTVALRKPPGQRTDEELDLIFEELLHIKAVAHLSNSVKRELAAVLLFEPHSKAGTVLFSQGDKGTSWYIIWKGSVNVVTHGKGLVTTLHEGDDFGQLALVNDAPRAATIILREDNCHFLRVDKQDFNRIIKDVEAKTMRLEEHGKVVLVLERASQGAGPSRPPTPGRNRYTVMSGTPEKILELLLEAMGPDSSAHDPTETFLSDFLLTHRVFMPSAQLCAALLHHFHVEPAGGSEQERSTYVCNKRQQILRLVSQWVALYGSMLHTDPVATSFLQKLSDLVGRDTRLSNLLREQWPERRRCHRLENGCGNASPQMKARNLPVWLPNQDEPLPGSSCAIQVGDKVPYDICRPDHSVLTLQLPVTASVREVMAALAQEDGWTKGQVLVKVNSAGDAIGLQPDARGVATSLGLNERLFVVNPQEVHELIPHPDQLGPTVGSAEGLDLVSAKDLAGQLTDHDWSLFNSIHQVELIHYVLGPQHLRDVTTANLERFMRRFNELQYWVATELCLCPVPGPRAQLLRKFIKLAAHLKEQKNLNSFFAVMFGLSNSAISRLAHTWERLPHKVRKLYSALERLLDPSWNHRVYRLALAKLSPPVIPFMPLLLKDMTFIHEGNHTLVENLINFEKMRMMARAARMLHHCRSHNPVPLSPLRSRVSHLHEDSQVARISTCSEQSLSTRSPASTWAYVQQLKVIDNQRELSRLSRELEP
# Sequence of UniProt Q9Y253 (Q9Y253 whole entry, looked up): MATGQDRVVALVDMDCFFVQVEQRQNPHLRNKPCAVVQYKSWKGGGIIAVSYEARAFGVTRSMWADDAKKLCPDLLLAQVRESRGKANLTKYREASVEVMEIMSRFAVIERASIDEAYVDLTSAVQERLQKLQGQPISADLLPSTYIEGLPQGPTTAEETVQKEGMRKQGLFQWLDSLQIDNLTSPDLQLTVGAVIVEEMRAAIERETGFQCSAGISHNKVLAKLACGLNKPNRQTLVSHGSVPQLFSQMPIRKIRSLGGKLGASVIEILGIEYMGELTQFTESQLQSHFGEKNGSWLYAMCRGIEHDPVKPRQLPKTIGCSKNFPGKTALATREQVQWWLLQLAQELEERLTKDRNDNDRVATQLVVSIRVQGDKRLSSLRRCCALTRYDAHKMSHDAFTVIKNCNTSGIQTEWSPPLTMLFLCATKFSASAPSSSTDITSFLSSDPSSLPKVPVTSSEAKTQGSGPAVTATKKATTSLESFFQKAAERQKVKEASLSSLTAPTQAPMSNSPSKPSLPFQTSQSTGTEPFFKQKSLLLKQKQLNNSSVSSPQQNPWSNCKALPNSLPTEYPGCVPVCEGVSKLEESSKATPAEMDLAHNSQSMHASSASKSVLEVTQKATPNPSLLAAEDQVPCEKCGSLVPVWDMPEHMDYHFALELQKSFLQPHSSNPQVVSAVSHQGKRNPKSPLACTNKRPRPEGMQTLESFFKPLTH
# Sequence of UniProt Q99816 (Q99816 whole entry, looked up): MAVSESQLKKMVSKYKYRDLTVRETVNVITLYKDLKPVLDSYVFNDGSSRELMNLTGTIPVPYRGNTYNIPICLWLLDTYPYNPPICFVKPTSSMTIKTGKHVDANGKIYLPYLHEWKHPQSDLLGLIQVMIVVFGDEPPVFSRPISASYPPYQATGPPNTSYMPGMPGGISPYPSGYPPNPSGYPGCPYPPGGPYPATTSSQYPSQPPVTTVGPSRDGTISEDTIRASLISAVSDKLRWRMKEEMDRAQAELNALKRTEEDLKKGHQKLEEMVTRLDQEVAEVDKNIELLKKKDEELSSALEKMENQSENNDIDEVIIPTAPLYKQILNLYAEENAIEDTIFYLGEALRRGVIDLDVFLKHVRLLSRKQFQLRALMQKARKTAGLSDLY
# Sequence of UniProt P11473 (P11473 whole entry, looked up, the tested form may be a part): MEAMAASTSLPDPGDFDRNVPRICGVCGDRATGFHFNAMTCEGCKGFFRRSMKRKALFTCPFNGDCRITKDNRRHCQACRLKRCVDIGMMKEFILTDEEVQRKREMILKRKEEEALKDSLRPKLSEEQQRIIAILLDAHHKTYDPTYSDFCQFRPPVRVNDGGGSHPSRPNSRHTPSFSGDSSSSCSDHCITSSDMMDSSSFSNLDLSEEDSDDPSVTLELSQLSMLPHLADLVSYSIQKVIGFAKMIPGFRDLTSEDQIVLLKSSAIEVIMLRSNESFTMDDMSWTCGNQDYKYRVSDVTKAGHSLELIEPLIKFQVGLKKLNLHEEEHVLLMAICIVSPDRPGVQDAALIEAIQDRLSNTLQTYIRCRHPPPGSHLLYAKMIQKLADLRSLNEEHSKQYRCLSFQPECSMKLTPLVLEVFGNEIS
# Sequence of UniProt Q9UBT6 (Q9UBT6 whole entry, looked up): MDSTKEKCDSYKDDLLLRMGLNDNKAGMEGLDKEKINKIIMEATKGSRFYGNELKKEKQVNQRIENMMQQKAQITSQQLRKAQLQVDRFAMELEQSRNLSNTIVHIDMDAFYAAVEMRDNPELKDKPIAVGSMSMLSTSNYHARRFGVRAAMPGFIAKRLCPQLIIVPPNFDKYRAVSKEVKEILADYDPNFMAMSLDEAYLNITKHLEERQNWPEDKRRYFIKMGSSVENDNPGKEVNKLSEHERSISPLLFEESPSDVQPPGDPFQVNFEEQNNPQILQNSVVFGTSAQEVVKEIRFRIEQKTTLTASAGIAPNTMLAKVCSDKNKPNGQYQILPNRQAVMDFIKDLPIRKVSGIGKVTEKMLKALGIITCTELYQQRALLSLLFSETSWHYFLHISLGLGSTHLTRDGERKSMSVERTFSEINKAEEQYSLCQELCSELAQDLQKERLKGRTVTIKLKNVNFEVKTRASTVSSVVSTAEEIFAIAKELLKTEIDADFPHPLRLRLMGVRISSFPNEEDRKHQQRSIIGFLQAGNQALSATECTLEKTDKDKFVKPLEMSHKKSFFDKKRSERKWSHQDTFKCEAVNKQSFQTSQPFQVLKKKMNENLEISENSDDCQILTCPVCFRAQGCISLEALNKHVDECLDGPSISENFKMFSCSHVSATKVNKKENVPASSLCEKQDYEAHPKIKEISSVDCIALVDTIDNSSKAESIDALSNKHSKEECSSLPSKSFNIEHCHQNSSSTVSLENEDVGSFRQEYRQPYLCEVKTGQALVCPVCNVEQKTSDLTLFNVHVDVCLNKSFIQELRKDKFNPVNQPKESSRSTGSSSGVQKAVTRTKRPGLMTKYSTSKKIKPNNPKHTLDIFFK
# Sequence of UniProt P27695 (P27695 whole entry, looked up): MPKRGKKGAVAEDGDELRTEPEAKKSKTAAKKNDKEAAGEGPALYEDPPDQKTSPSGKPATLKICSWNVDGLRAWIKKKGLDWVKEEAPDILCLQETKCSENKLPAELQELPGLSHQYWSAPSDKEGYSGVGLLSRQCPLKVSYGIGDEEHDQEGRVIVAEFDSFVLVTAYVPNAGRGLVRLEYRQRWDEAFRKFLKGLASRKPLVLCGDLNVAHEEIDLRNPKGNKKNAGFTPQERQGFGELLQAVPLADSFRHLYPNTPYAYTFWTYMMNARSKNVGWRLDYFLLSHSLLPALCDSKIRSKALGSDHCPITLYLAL
smiles,measurement,setting,value
CCN(c1ccc(NC(=O)CCc2nc3sc4c(c3c(=O)[nH]2)CCCC4)cc1)C(C)C,Potency,[1],"inconclusive [inhibitor, partial curve]"
same,activation,[2],"inactive: -1.91% [at 17.1 µM, percent relative to cAMP agonist control]"
O=C(O)C/C(=C\c1cc(Cl)c2c(c1)OCO2)c1nc2ccccc2s1,Potency,[1],"inconclusive [inhibitor, partial curve]"
same,activation,[2],"inactive: -1.81% [at 17.1 µM, percent relative to cAMP agonist control]"
CN(CC(=O)Nc1ccc(Cl)c(C(F)(F)F)c1)C(=O)c1ccc2c(c1)OCCO2,Potency,[1],"inconclusive [inhibitor, partial curve, poor fit]"
same,Potency,[2],"inconclusive [activator, partial curve, poor fit]"
O=C(N/N=C/c1cc(Cl)cc([N+](=O)[O-])c1O)NC12CC3CC(CC(C3)C1)C2,Potency,[3],active: 67.5 µM
same,Potency,[1],active: 10.7 µM
same,Potency,[4],"inconclusive [activator, partial curve, poor fit]"
same,Potency,[5],"inconclusive [activator, partial curve, poor fit]"
Cc1ccc(NC(=O)CN2C(=O)S/C(=C/c3ccc(O)c([N+](=O)[O-])c3)C2=O)cc1C,Potency,[6],"inconclusive [inhibitor, partial curve, poor fit]"
same,Potency,[3],"inconclusive [inhibitor, single point]"
same,Potency,[1],"inconclusive [inhibitor, full curve, poor fit]"
same,Potency,[4],inactive
O=C(O)COc1ccc(/C=N/NC(=O)c2ccc(-c3csc(Nc4ccc(Cl)cc4)n3)cc2)cc1,Potency,[7],active: 5.41 µM
same,Potency,[1],"inconclusive [inhibitor, full curve]"
same,Potency,[4],inactive
same,Potency,[5],inactive
O=c1[nH]c(C2CCN(S(=O)(=O)c3ccccc3F)CC2)nc2c1nnn2Cc1ccc(F)cc1,Potency,[1],"inconclusive [inhibitor, partial curve, poor fit]"
same,Potency,[2],inactive
COc1cc(/C=C2\SC(=O)N(c3cccc(Cl)c3)C2=O)cc([N+](=O)[O-])c1O,Potency,[3],"inconclusive [inhibitor, single point]"
same,Potency,[1],"inconclusive [inhibitor, full curve, poor fit]"
same,Potency,[4],inactive
same,Potency,[5],"inconclusive [activator, partial curve, poor fit]"
O=C1C(Cl)=C(NS(=O)(=O)c2ccc([N+](=O)[O-])cc2)C(=O)c2ccccc21,Potency,[8],inactive
same,Potency,[9],"inconclusive [inhibitor, partial curve, poor fit]"
same,Potency,[10],"inconclusive [cytotoxic, single point]"
same,Potency,[1],"inconclusive [inhibitor, partial curve]"
same,Potency,[4],inactive
same,Potency,[5],"inconclusive [activator, single point]"
CC(C)(C)c1ccc(OCc2ccc(C(=O)N/N=C/c3ccc(O)c(O)c3)cc2)cc1,Potency,[1],"inconclusive [inhibitor, partial curve]"
same,activation,[2],"inactive: -9.36% [at 17.1 µM, percent relative to cAMP agonist control]"
CC1=CC(=C(C#N)c2nc3ccccc3s2)C=C(C)N1Cc1ccco1,Potency,[11],"inconclusive [inhibitor, partial curve]"
same,Potency,[1],"inconclusive [inhibitor, partial curve, poor fit]"
same,Potency,[4],"inconclusive [activator, single point]"
same,Potency,[5],"inconclusive [activator, partial curve, poor fit]"
COc1ccc(Cn2c(=O)cc(C)[nH]c2=S)cc1,Potency,[1],inactive
same,Potency,[2],"inconclusive [activator, single point]"
O=c1[nH]c(/C=C/c2cccc([N+](=O)[O-])c2)c([N+](=O)[O-])c(=O)[nH]1,Potency,[8],"inconclusive [inhibitor, full curve]"
same,Potency,[10],"inconclusive [rising, partial curve, poor fit]"
same,Potency,[1],active: 16.9 µM
same,Potency,[4],inactive
same,Potency,[5],inactive
Cc1cc2nc3c(=O)n(Cc4ccccc4)c(=O)[nH]c3nc2cc1N,Potency,[11],active: 3.66 µM
same,Potency,[1],"inconclusive [inhibitor, partial curve]"
same,Potency,[4],"inconclusive [activator, partial curve, poor fit]"
same,Potency,[5],"inconclusive [activator, partial curve]"
CCc1ccc(N=C2NC(=O)/C(=C/c3ccc(OCC(=O)O)cc3)S2)cc1,Potency,[12],"inconclusive [inhibitor, partial curve]"
same,Potency,[1],"inconclusive [inhibitor, full curve]"
same,Potency,[4],"inconclusive [activator, partial curve, poor fit]"
C=CCN1C(=O)/C(=C/C=C2/N(CC)c3ccc(S(=O)(=O)N(C)C)cc3N2CC)SC1=S,Potency,[1],inactive
same,Potency,[2],"inconclusive [activator, partial curve, poor fit]"

# Reference: PubChem BioAssay (NCATS)
